Source: publication PMC4336329 (PLoS ONE, 2015)
Hit rate of the full screen: of about 310,000 compounds, about 2,200 (0.71%) showed an effect of 50% or more. The effect is printed as a negative number. The list shows a part of the results.

target: human ether-à-go-go-related gene (hERG) potassium channel (human, UniProt Q12809); test: primary screen, population patch clamp on CHO cells stably expressing hERG
Sequence (Q12809 whole entry, looked up): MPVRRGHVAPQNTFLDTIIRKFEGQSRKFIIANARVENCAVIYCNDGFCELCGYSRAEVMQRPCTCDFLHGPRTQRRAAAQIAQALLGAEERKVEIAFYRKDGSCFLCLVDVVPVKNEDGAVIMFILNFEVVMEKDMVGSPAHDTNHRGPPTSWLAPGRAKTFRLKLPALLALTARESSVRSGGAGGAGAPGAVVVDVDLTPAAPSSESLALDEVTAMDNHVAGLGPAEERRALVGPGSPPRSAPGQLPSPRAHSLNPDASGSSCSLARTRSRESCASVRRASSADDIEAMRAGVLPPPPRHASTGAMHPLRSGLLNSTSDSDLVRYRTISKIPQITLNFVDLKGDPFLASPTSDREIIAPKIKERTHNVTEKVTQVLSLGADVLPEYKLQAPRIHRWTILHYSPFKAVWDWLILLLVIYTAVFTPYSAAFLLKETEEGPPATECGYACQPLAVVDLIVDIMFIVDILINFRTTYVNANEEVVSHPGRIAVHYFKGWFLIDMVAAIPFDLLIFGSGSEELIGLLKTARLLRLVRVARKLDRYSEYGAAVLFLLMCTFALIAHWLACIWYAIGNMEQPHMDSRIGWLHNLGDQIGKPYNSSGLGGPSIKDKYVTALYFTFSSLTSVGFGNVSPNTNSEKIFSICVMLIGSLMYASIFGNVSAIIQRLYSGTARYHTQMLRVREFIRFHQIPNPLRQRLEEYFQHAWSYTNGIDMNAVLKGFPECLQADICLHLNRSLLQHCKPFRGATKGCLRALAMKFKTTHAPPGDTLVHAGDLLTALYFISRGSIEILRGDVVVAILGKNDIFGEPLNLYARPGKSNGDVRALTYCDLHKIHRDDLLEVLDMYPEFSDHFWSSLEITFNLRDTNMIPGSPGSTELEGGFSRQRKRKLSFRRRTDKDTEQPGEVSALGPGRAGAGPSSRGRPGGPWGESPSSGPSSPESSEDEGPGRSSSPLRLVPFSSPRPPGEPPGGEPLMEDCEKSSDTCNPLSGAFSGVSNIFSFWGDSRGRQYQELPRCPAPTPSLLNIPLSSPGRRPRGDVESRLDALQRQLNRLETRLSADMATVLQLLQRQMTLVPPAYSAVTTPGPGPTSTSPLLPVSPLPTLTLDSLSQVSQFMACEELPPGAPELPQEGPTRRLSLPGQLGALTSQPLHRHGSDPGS

Compound | hERG current change (%, negative = inhibition) at 1uM
COc1ccc(C)cc1S(=O)(=O)N(C)CC(=O)N1CCN(c2ccccc2)CC1 | -1.57%
COc1ccc(CCNC(=O)c2cnc3ccccc3n2)cc1 | 9.2%
Cc1ccc(C(=O)NC2CCCCCC2)cc1S(=O)(=O)N1CCOCC1 | 12.4%
CCOC(=O)C1CCCN(C(=O)CN(c2ccc(OC)cc2)S(=O)(=O)c2c(C)noc2C)C1 (centres unmarked) | 12%
CC(NS(=O)(=O)c1ccc(OCC(=O)N2CCOCC2)c(Cl)c1)c1ccccc1 (centres unmarked) | 7.32%
O=C(CSc1nnnn1C1CCCCC1)NCc1cccc(C(=O)O)c1 | 3.74%
Cl.c1ccc(CSc2nnc(-c3cccnc3)o2)cc1 | -0.8%
CN(Cc1ccccc1)C(=O)C1CCN(S(=O)(=O)c2cccc3nonc23)CC1 | 8.2%
COc1ccc2c(c1)C(=O)/C(=C/C=C/c1ccccc1)CC2 | 18.3%
COc1ccc(OCCCC(=O)NNC(=O)c2ccncc2)cc1 | 6.78%
O=S(=O)(c1cccs1)N1CCN(c2ccnc3cc(Cl)ccc23)CC1 | -2.74%
O=[N+]([O-])c1cc(S(=O)(=O)NCCN2CCOCC2)ccc1Sc1nnnn1-c1ccccc1 | -3.53%
CC(=O)CSc1nnc(-c2ccncc2)n1C | 22.5%
COc1ccc(OC)c(NC(=O)C(CCS(C)(=O)=O)NC(C)=O)c1 (centres unmarked) | 12.8%
Cc1ccc(-c2csc(NC(=O)Cc3ccc(F)cc3)n2)o1 | 21.7%
COc1cc(C(=O)O/N=C2\C=CC(=O)C=C2C)cc(OC)c1OC | -3.01%
COc1cc(C(c2nnnn2C2CCCC2)N2CCN(C)CC2)cc(OC)c1OC.Cl (centres unmarked) | 13.5%
Cc1ccc(N2CC(C(=O)Nc3ccccc3N3CCCC3)CC2=O)cc1 (centres unmarked) | 10.6%
CCN(CC(=O)Nc1cc(Cl)ccc1C)C(=O)c1cc(S(=O)(=O)N2CCCCCC2)ccc1OC | 14.1%
CC1CN(C(=O)c2cccc(S(=O)(=O)Nc3ccccc3Cl)c2)CC(C)O1 (centres unmarked) | 8.3%
CCOC(=O)Cn1nc(C)n(-c2cccc(Cl)c2)c1=O | 13%
COc1ccc(-c2oc3ccccc3c(=O)c2OC(=O)c2ccc(C)cc2)cc1 | 12.6%

Compound | hERG current change (%, negative = inhibition) at 1uM
COc1ccc(-c2cc(C#N)nc(N3CCN(c4ccccc4)CC3)n2)cc1 | 11.2%
CCC(=O)N1CCN(c2ccc(NC(=O)c3cc4ccccc4o3)cc2)CC1 | 1.12%
COc1cccc(NC(=O)CCc2ccccc2)c1 | -2.39%
NC(=O)C1CCN(C(=O)CN(c2ccc3c(c2)OCCO3)S(=O)(=O)c2ccccc2)CC1 | 1.49%
COCc1cc(=O)[nH]c(SC)n1 | 15.5%
CC(=O)NC(=S)NNC(=O)c1ccc(Br)cc1 | 13.3%
CCC(C)NC(=O)c1ccc(NC(=O)C2=C(C)OCCS2)cc1 (centres unmarked) | 18.4%
CCOc1cccc(/C=N/Nc2ccc(S(=O)(=O)N(CC)CC)cn2)c1O | 18.9%
COc1ccc(N(C(=O)c2cccnc2)S(=O)(=O)c2cccs2)cc1 | 13%
Cc1ccc2cc(CN(CCN3CCCC3)C(=O)Nc3ccc(F)cc3)c(=O)[nH]c2c1C | -8.93%
N#C/C(=C\c1cn(-c2ccccc2)nc1-c1ccccc1)S(=O)(=O)c1ccccc1 | 7.49%
O=[S@]1Oc2ccccc2-c2ccccc21 | 13.4%
CC1CN(S(=O)(=O)c2cccc(C(=O)NCc3ccc4c(c3)OCO4)c2)CC(C)O1 (centres unmarked) | 3.8%
CN(C)c1ccccc1C(=O)N1CCCC(Nc2ccc(F)cc2)C1 (centres unmarked) | 9.52%
CC(C)c1ccc(C(CC(=O)O)N2Cc3ccccc3C2=O)cc1 (centres unmarked) | 1.35%
CN(c1ccccc1)S(=O)(=O)c1ccc(NC(=O)c2ccccc2)cc1 | 3.08%
Cc1nn(CC(=O)NCC(C)c2ccccc2)c(=O)c2cccn12 (centres unmarked) | 20.7%
Cc1ccc2c(c1)c(CC(=O)Nc1ccc(C)c(F)c1)c(C(=O)O)n2C | -0.143%
Cc1ccc(OCC(=O)Nc2ccc(N3CCOCC3)cc2)cc1 | -0.0361%
CCCCN(C)CCCNC(=O)c1ccc(N2CCCC2=O)cc1 | 8.33%
CCOC(=O)C1=C(O)C(=O)N(c2ccc(S(N)(=O)=O)cc2)C1c1ccc(Cl)cc1 (centres unmarked) | 10.4%
COc1ccc(/C=N/Nc2nnc(Cc3ccccc3)c(=O)[nH]2)cc1 | -0.382%

Compound | hERG current change (%, negative = inhibition) at 1uM
N#Cc1ccc(Cl)cc1NC(=O)COC(=O)c1ccc2c(c1)OCCO2 | 7.44%
N#C/C(=C\c1ccc([N+](=O)[O-])cc1)c1nc(C2CC2)cs1 | 11.2%
Cc1cccc(OCC(O)Cn2c(N3CCCCC3)nc3c2c(=O)n(C)c(=O)n3C)c1 (centres unmarked) | 9.01%
O=C(c1cc(S(=O)(=O)N2CCC3(CC2)OCCO3)ccc1F)N1CCCCC1 | 0.881%
O=C(NCc1cccs1)c1cc(S(=O)(=O)N2CCCCC2)ccc1Cl | 8.11%
COc1ccccc1N1CCN(C(CNS(=O)(=O)c2ccc(C)cc2)c2cccnc2)CC1 (centres unmarked) | -0.447%
Cc1cc(NC(=O)CN2C(=O)/C(=C/c3cccc(Br)c3)SC2=S)no1 | 5.26%
O=C(Nc1ccc(Br)cc1Cl)N1CCOCC1 | 13%
COc1ccc(NC(=O)C(C)N2C(=O)C3CC=C(Cl)CC3C2=O)cc1 (centres unmarked) | 18.7%
COc1ccc(OCCCC(=O)Nc2cccc([N+](=O)[O-])c2)cc1 | 11.2%
Cc1ccc(S(=O)(=O)N2CCN(C(=O)COC(=O)c3cnc(C)cn3)CC2)c(C)c1 | 23%
O=C(CN(c1ccccc1)S(=O)(=O)c1ccccc1)NCCSCc1ccco1 | 5.01%
COc1ccc(Cl)cc1N1C(=N)SCC1=O | 14.1%
c1coc(Cn2c(SCc3nc4ccccc4[nH]3)nnc2-c2cccs2)c1 | -9.01%
CN(c1ccccc1)S(=O)(=O)c1cccc(NC(=O)CSc2n[nH]c(N)n2)c1 | 9.25%
Clc1ccc(Nc2ccc3ccccc3n2)cc1 | 15.9%
O=C1N(Cc2cccnc2)C[C@@H]2C[C@@H](c3cccc(OCc4ccccc4)c3)N3CCC[C@@]123 | -17.8%
COc1cc(C2NC(=O)NC(C)=C2C(=O)OC2CCC(C)CC2)ccc1O (centres unmarked) | 12.1%
CSCCC(NC(=O)C1CCC(C)CC1)C(=O)NCc1ccco1 (centres unmarked) | -2.35%
Cc1onc(-c2c(Cl)cccc2Cl)c1C(=O)N/N=C(\N)COc1ccc(Cl)cc1 | 7.1%
Cc1ccc(C)c2[nH]c(=O)c(CN(Cc3ccco3)S(=O)(=O)c3ccc4c(c3)OCCO4)cc12 | 14.8%
Cc1cc2nn(-c3ccccc3)nc2cc1NC(=O)c1cccs1 | 0.654%

Compound | hERG current change (%, negative = inhibition) at 1uM
COc1ccc(C(c2oc(CO)cc(=O)c2O)c2oc(CO)cc(=O)c2O)cc1OC | 10.1%
COc1ccccc1N(CC(=O)NC1CCCCC1)C(=O)CCC(=O)Nc1ccccn1 | 3.09%
COc1ccc(Cc2nnc(SCC(=O)NCc3ccco3)o2)cc1 | 8.45%
CCOc1ccc(C(=O)NNC(=O)CN2C(=O)NC3(CCCC3)C2=O)cc1 | 0.935%
Cc1cc(C(F)(F)F)cc(NNC(=O)NC(=O)c2c(F)cccc2Cl)n1 | -0.544%
Clc1ccc(CSc2snnc2-c2ccccc2)cc1 | 9.74%
Cc1ccc(OCC(=O)N2c3ccccc3CC2C)c([N+](=O)[O-])n1 (centres unmarked) | 10.5%
O=C(Oc1c(-c2ccccc2)c(=O)n2c3c(cccc13)CC2)c1ccc(F)cc1 | 19.5%
Cc1cc(NC(=O)CCC(=O)N(c2cccc(F)c2)C(C(=O)NC2CCCC2)c2ccc(C)o2)no1 (centres unmarked) | 4.39%
COc1cccc(CNC(=O)COC(=O)CN2C(=O)NC3(CCCCC3C)C2=O)c1 (centres unmarked) | 19.1%
COc1ccc(NC(=O)C2CCCCN2N)cc1OC (centres unmarked) | 13.5%
CCOC(=O)Cc1c(C)nc2c(-c3ccc(Cl)cc3)c[nH]n2c1=O | 8.09%
N#C/C(=C\C=C\c1ccccc1[N+](=O)[O-])C(=O)NC1CCCCC1 | 10.3%
N#Cc1c(-c2ccccc2)nc(-c2ccncc2)[nH]c1=O | -8.61%
COc1ccccc1-c1cc(C(F)(F)F)nc(NCc2ccco2)n1 | 7.9%
CC(=O)Nc1ccc(S(=O)(=O)Nc2nc(-c3ccc(C(C)(C)C)cc3)cs2)cc1 | -3.26%
O=C(NCCc1ccccc1)C1CCN(S(=O)(=O)c2cccnc2)CC1 | 12.3%
C/C(Cn1nc([N+](=O)[O-])cc1C)=N\NC(=O)COc1ccccc1[N+](=O)[O-] | 7.38%
COc1cccc(-c2c(C(=O)N/N=C/c3ccsc3)nnn2-c2nonc2N)c1 | 19.4%
CC1(C)CC(=O)C=C(Nc2ccc(O)c(C(=O)O)c2)C1 | 17.2%
